The subject of the series is ATP. In words: switch fluorescence ratio, 500 uM ATP over buffer (Cy3 cluster intensity, sum of 5 cycles each) (fold (ratio)); higher = stronger signal-on switching upon ATP binding; sequences stand for … in TCGTCGGCAGCGTCAGATGTGTATAAGAGACAGTTTTTTTTTTTTTTTTTTTTTTTTT…TC. As to conditions: aptamer strand: ATP DNA aptamer (quencher-CACCTGGGGGAGTATTGCGGAGGAAGG + anchor), 100 nM annealed; ATP concentration: 500 uM; one replicate. A digest of the protocol: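 Per cluster, summed Cy3 intensity from the target cycles was divided by that from the buffer cycles to give the fluorescence ratio, then averaged per switch-domain sequence. Clusters outside 100-1000 RFU were excluded. The Cy3-labelled switching-strand clusters, on a modified Illumina MiSeq flow-cell, were annealed to 100 nM quencher-labelled ATP aptamer and imaged in selection buffer, then after 15 min with 500 uM ATP at 22 °C, for five cycles with NaOH stripping and re-annealing between them.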

Sequences with one replicate were seen in a single cluster, so their values are uncertain.

Here are results for 79 sequences from the supplement of paper PMC10126150.
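Further: ATP exposure 15 min at 22 °C before imaging.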

Consider AGGAATTCAG, for which the switch fluorescence ratio was found to be 0.972.

GCGCTTCTAG: the switch fluorescence ratio came to 0.985.

Consider TCGAGGTCA, for which the switch fluorescence ratio was determined as 1.03.

On to GAGATGGCCT, for which the switch fluorescence ratio came out at 0.972.

With TATGTAAGTT, the switch fluorescence ratio was determined as 1.

With TAGATCTGCC, the switch fluorescence ratio worked out at 1.06.

GGAAATAAAG: the switch fluorescence ratio came to 0.986.

AAGTCTAGGG: the switch fluorescence ratio came out at 0.977.

Regarding GCGGCTTTTA, the switch fluorescence ratio was found to be 0.999.

Consider ACGCGGTATA, for which the switch fluorescence ratio was determined as 1.02.

Regarding CCAGTTTGCG, the switch fluorescence ratio was 1.05.

Consider GAGGCGTATC, for which the switch fluorescence ratio amounted to 1.07.

CCGAGTTTCT: the switch fluorescence ratio was 1.12.

Consider CTAAATCGGG, for which the switch fluorescence ratio worked out at 0.961.

Take CCAGCATCCG: the switch fluorescence ratio was 1.2.

For CCGCTCCCCG, the switch fluorescence ratio came to 1.16.

With CATCTCATGT, the switch fluorescence ratio is 0.989.

GGTCAGTATT: the switch fluorescence ratio was 0.974.

On to ACATCGGGTA, for which the switch fluorescence ratio came out at 0.994.

On to GCCCGATTGG, for which the switch fluorescence ratio worked out at 0.986.

On to ACGTCTCAGC, for which the switch fluorescence ratio was 1.01.

In the case of TCCGACCTGA, the switch fluorescence ratio stood at 1.95.

Take TGAATTTAAA: the switch fluorescence ratio is 1.

Turning to AACTGAAGAT, the switch fluorescence ratio turned out to be 1.11.

On to CGGATGCAGA, for which the switch fluorescence ratio is 1.03.

With CGTCCGCGTA, the switch fluorescence ratio worked out at 4.53.

Consider CTCTTAGAGG, for which the switch fluorescence ratio is 1.02.

For the sequence TGACGAATAG, the switch fluorescence ratio is 1.12.

CCACTTAGAG: the switch fluorescence ratio amounted to 1.08.

For the sequence AATTGTCTGT, the switch fluorescence ratio was 1.03.

Turning to ATATCCAGAC, the switch fluorescence ratio is 0.986.

Take AAAATGTG: the switch fluorescence ratio was 0.996.

For TCATGATCAT, the switch fluorescence ratio was determined as 0.994.

In the case of AGTTTAGGGC, the switch fluorescence ratio was 1.01.

As to ACTCGGAGCA, the switch fluorescence ratio came out at 1.67.

Take TTGCTTGGA: the switch fluorescence ratio amounted to 1.01.

As for CGCTTTGATT, the switch fluorescence ratio is 1.01.

Take TACCAACTGA: the switch fluorescence ratio stood at 1.13.

For GGAGAAGTGT, the switch fluorescence ratio is 1.01.

In the case of AGCCACTCGC, the switch fluorescence ratio was found to be 1.06.

In the case of CTATTTGGTT, the switch fluorescence ratio came out at 0.981.

As for TTTCTACTGT, the switch fluorescence ratio came out at 1.05.

Turning to ATAGAGTTTT, the switch fluorescence ratio came out at 0.969.

With GTGACTTCAT, the switch fluorescence ratio was determined as 0.999.

In the case of AAGAATCTCG, the switch fluorescence ratio turned out to be 1.05.

With GAAATGCTTA, the switch fluorescence ratio was found to be 1.02.

As for ACCGCTAAAG, the switch fluorescence ratio is 1.34.

For TACCAACGCG, the switch fluorescence ratio worked out at 1.04.

Turning to TCCCAGCTTG, the switch fluorescence ratio is 1.02.

With GTAATGCTTC, the switch fluorescence ratio turned out to be 1.1.

Consider GAAGTGAGAT, for which the switch fluorescence ratio was 0.985.

In the case of ACGATGTTG, the switch fluorescence ratio turned out to be 1.04.

Turning to AGAACTTACA, the switch fluorescence ratio came out at 1.21.

GAGGGGTTAT: the switch fluorescence ratio worked out at 1.01.

GTTTGGGTAT: the switch fluorescence ratio stood at 0.985.

For CAGGACAT, the switch fluorescence ratio was found to be 1.02.

Turning to TTGTTTAAT, the switch fluorescence ratio was determined as 0.962.

For ACTTGTAGCA, the switch fluorescence ratio worked out at 1.02.

Turning to AGTGAACGGA, the switch fluorescence ratio came out at 1.01.

Take ATGGGGAAGG: the switch fluorescence ratio was 0.95.

As for TCTTACCGGT, the switch fluorescence ratio was determined as 0.998.

Consider AAAATCGTAA, for which the switch fluorescence ratio is 1.

Regarding GAGTAGGCCT, the switch fluorescence ratio came to 0.943.

Take AAATTTCGCA: the switch fluorescence ratio came to 1.03.

Regarding AGTTCAATGC, the switch fluorescence ratio worked out at 1.67.

Regarding AAGAGCCGTC, the switch fluorescence ratio amounted to 0.978.

As to CAACAGTGGA, the switch fluorescence ratio was 0.991.

With TCGGTTTGGG, the switch fluorescence ratio amounted to 1.

Turning to GACTCATTTA, the switch fluorescence ratio stood at 1.03.

Consider CAAAACTGCA, for which the switch fluorescence ratio is 0.958.

With ATTGTCTGAA, the switch fluorescence ratio is 0.978.

Turning to TGAGTTCTG, the switch fluorescence ratio turned out to be 1.01.

Turning to ACTCGCGCTG, the switch fluorescence ratio came out at 1.2.

On to TGGGCGTAAT, for which the switch fluorescence ratio was 1.35.

Consider CTGAACCTGT, for which the switch fluorescence ratio is 0.992.

Take GTTCGACTTT: the switch fluorescence ratio is 0.961.

Regarding TGGGCATAAC, the switch fluorescence ratio is 0.992.

In the case of GGACTCCGGT, the switch fluorescence ratio worked out at 1.04.

As to TAAAATTAA, the switch fluorescence ratio came out at 0.981.
